# Publication PMC7819943, “Rice protein-binding microarrays: a tool to detect cis-acting elements near promoter regions in rice”
# The list shows a part of the results.
# Biological target: T1, OsWOX13 (Oryza sativa, UniProt Q5QMM3 1-267)
# T1 sequence: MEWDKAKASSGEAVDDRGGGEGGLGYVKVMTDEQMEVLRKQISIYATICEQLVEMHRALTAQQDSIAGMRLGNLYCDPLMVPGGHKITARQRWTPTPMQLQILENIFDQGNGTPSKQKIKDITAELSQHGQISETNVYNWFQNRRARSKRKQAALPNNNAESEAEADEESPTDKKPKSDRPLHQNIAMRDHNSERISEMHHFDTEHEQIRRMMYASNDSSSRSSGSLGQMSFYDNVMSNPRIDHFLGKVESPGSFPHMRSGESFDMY
# Test: protein-binding microarray (RPBM); PBS, 2% BSA, 51.3 ng/ul salmon testes DNA, 50 uM zinc acetate, 200 nM TF, 25 C, 1 h; high values mean tight binding
# Conditions: protein: recombinant; tags: N-terminal polyhistidine and DsRed monomer fusion (pET32a); label: CyDye5-dUTP incorporated in the synthesized complementary strand; 3' TTTTT single-stranded linker to array surface; dsDNA, one strand shown
# How it was run: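 The binding signal is fluorescence intensity per array feature (arbitrary units). Readings came from an Axon 4000B scanner after a washed, 2% BSA-blocked, double-stranded custom Agilent array had been incubated for 1 h at 25 °C with 200 nM protein and 50 µM zinc acetate. The protein was a Ni–NTA-purified transcription factor fused N-terminally to polyhistidine and DsRed, expressed in E. coli BL21-CodonPlus.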
row,Sequence,binding signal
1,GGTGCTATAACTGGTAATAATTTGCTTAGCTCCTGGTTTGCGGAGTCACCTAGTGCAG,13100 fluorescence intensity (a.u.)
2,CATAATATTTAATTAAACTAATTTAATGTTGTGAATATTACGGAGTCACCTAGTGCAG,17700 fluorescence intensity (a.u.)
3,TATACGTATGATTTATCGTATTAGAATATATTATATCCGGCGGAGTCACCTAGTGCAG,3850 fluorescence intensity (a.u.)
4,ATTATAACTGGTAATGGCCATTACCTGCCTTCACATTGCTCGGAGTCACCTAGTGCAG,8450 fluorescence intensity (a.u.)
5,TGGGGTTGTGCCAATCAAGCCCACTGATACATTGTTGTTCCGGAGTCACCTAGTGCAG,6360 fluorescence intensity (a.u.)
6,ATAAATAATAAATTCCAATTTCCAAACCCAAACCAAACCACGGAGTCACCTAGTGCAG,8090 fluorescence intensity (a.u.)
7,AGGACATAATTTTAATGGGGAAATTGGTTCCATACCATCTCGGAGTCACCTAGTGCAG,20500 fluorescence intensity (a.u.)
8,TAGTGATTTTGTGAAATCTCAAAATATATTGATCCAGCTTCGGAGTCACCTAGTGCAG,5030 fluorescence intensity (a.u.)
9,GTACATCAAATTTTAAGATAATCAAAACAAAGATGAACACCGGAGTCACCTAGTGCAG,4180 fluorescence intensity (a.u.)
10,ATCCTTAATCACATCACCATAAGATAGAGGTGATAAAGGACGGAGTCACCTAGTGCAG,3720 fluorescence intensity (a.u.)
11,GTGCATTATCGATCATAATTAGCAGGTGAGAGATATTTAACGGAGTCACCTAGTGCAG,4060 fluorescence intensity (a.u.)
12,TTCTCTGGATTAATTGACGGGTCGTCTGGCTGGATTAGTGCGGAGTCACCTAGTGCAG,27200 fluorescence intensity (a.u.)
13,ATTAATGGAATAAGTTCACTTTGGGTCCCTCTATTTGTAGCGGAGTCACCTAGTGCAG,12000 fluorescence intensity (a.u.)
14,CCGATCAAGATTGCCATTTCAACCTAATACAGTTAACTAGCGGAGTCACCTAGTGCAG,9120 fluorescence intensity (a.u.)
15,GAAATAATTAATCAATTAACGCTGATGTGTGAGCTGCGTACGGAGTCACCTAGTGCAG,53800 fluorescence intensity (a.u.)
16,TTTTATATTTAAATCATCATTCTGCATACTATTTAAATTTCGGAGTCACCTAGTGCAG,3200 fluorescence intensity (a.u.)
17,GAAACATCTTTAACTGGTAGGTGACATCACCAATAGTGAGCGGAGTCACCTAGTGCAG,3160 fluorescence intensity (a.u.)
18,GATTAAGTGATTAAGCAAGATTGTCGTCTGTTAAGCAAGACGGAGTCACCTAGTGCAG,16500 fluorescence intensity (a.u.)
19,ACTTAATTGCCGGCTATAAAATGAACTATTTGCCGGGAATCGGAGTCACCTAGTGCAG,26800 fluorescence intensity (a.u.)
20,GACTAATTAGTCTCAAAAGATTTGTCTCGCGATTTTCATACGGAGTCACCTAGTGCAG,28800 fluorescence intensity (a.u.)
21,TCAACAGATTGGCACGCGTACGCACACTTCAAATGTTAATCGGAGTCACCTAGTGCAG,12300 fluorescence intensity (a.u.)

row,Sequence,binding signal
1,GCCCTTAATAGAATTATGCAAGACAAGACCACGATTGTAGCGGAGTCACCTAGTGCAG,11300 fluorescence intensity (a.u.)
2,ATAATTGGCATAGTATATTCTAGGCCCTTGAGGAAACTCCCGGAGTCACCTAGTGCAG,13600 fluorescence intensity (a.u.)
3,TTTAAGATAAATTAAACTCTAGAAATAGATACATTATCGGCGGAGTCACCTAGTGCAG,3360 fluorescence intensity (a.u.)
4,TCATCGGCCGCCGCTGTGATTGGGATGGTTGACGGGAAGGCGGAGTCACCTAGTGCAG,4780 fluorescence intensity (a.u.)
5,TCTCTTACTCTTGTTGATTGACACCGGTCATCAGTAGTTCCGGAGTCACCTAGTGCAG,43200 fluorescence intensity (a.u.)
6,ATTGTAACTACTTCATAATTGGGATATTGATACCTTCCATCGGAGTCACCTAGTGCAG,14300 fluorescence intensity (a.u.)
7,ATACTTGACAGGTTTTATGCATATAAGAAAATCTGTTTAACGGAGTCACCTAGTGCAG,7520 fluorescence intensity (a.u.)
8,CACATGGCCTTGATTAGCGCTGAGGTTATAGTAGGTTAGACGGAGTCACCTAGTGCAG,5980 fluorescence intensity (a.u.)
9,GCTGTTAAAGTTGATCTTAATTGACATATAAAATCGACCCCGGAGTCACCTAGTGCAG,17600 fluorescence intensity (a.u.)
10,TTTGCTCTCATCACACATTCAATCACTCCATAAATTTTGACGGAGTCACCTAGTGCAG,10700 fluorescence intensity (a.u.)
11,CCCAATGTAATGTGTGAATATATTGACAATAGGCTTCTATCGGAGTCACCTAGTGCAG,4220 fluorescence intensity (a.u.)
12,AATCCAATCCTGGCAAATTTTAGCTCCCATTAACGCTCAGCGGAGTCACCTAGTGCAG,3740 fluorescence intensity (a.u.)
13,AAACCAATCATCACCTCTTCTTCTTGGGGTGTTCTTGACTCGGAGTCACCTAGTGCAG,21300 fluorescence intensity (a.u.)
14,GTTCAAATTATTTGACTTGTGTTAACCACAAATGTTACGCCGGAGTCACCTAGTGCAG,16000 fluorescence intensity (a.u.)
15,ACTATAATTAATGGATCCAGTAATAATATTTCTATAGTGTCGGAGTCACCTAGTGCAG,19000 fluorescence intensity (a.u.)
16,TCCAGAATTGTGCAATCAATGAAATCCGCCGACTAAATGACGGAGTCACCTAGTGCAG,6760 fluorescence intensity (a.u.)
17,TACCAAATTTTGTTAATGCCAAATTTTGGCATTACTAATTCGGAGTCACCTAGTGCAG,5730 fluorescence intensity (a.u.)
18,GTTGTCAAATGAGTCAATTAGATATTTCCAACCCACACTACGGAGTCACCTAGTGCAG,5950 fluorescence intensity (a.u.)
19,CCATTTCAAATTACTTATCATTCTAACAGCTTTTGTCCCACGGAGTCACCTAGTGCAG,4570 fluorescence intensity (a.u.)
20,CTTTGTATTTTAATAATTGAAAACTGATGTAAGTTATGAGCGGAGTCACCTAGTGCAG,8880 fluorescence intensity (a.u.)
21,ACTTCCCATGTAAATTATGTCAATTCAGAAACGACAATCTCGGAGTCACCTAGTGCAG,5710 fluorescence intensity (a.u.)

row,Sequence,binding signal
1,ACTTTCTCTTCTCAACCAATCACATACTTCCTCTAATCATCGGAGTCACCTAGTGCAG,3450 fluorescence intensity (a.u.)
2,GAAATTATTGCTGAAATTTTGTCCTTCATAGTGTGCTGTTCGGAGTCACCTAGTGCAG,12200 fluorescence intensity (a.u.)
3,CTGACGTCGCCTTTGATTGTGTAGATTAGCTTCTTTGGATCGGAGTCACCTAGTGCAG,11500 fluorescence intensity (a.u.)
4,ATAGGGTGTAATTTATTTTCGGATTTGCTACATCTCTGTCCGGAGTCACCTAGTGCAG,4320 fluorescence intensity (a.u.)
5,CGTGTCTCCCCAATCCCAATCACTAGCCTCCTCCGTCGACCGGAGTCACCTAGTGCAG,3180 fluorescence intensity (a.u.)
6,GTCACGACGCCCTGATTGGCGTGAGGACATAGTTACATTTCGGAGTCACCTAGTGCAG,9000 fluorescence intensity (a.u.)
7,AACCAAAATTGATGCTTGGGGAGCATCCATTGGAGAGGCCCGGAGTCACCTAGTGCAG,12200 fluorescence intensity (a.u.)
8,GCTTTTAAATCAAAATCATCAATTTCTGCTTTATTAACCCCGGAGTCACCTAGTGCAG,11100 fluorescence intensity (a.u.)
9,CCATGATTTGACAATGTGATGCTACAGTAAACATTTGCTACGGAGTCACCTAGTGCAG,42800 fluorescence intensity (a.u.)
10,CTGTATATTGATTGATTGGTTATTCGCAAGAAACATGACTCGGAGTCACCTAGTGCAG,65100 fluorescence intensity (a.u.)
11,TCTACTATATCAATTTAGTTTCATTAAATATAACGCTGAACGGAGTCACCTAGTGCAG,4370 fluorescence intensity (a.u.)
12,CAGTTTTGATCATTGAATTAATTGGCCAGGTCTATTCCCCCGGAGTCACCTAGTGCAG,40800 fluorescence intensity (a.u.)
13,CTAACTTAGAGATAGATTAGCATGTATGACACATCAATTTCGGAGTCACCTAGTGCAG,5120 fluorescence intensity (a.u.)
14,TCCAAAATCAATCAATTAAAACCCATAGTTATTGTTGACTCGGAGTCACCTAGTGCAG,53500 fluorescence intensity (a.u.)
15,ACTTACTATAACATTGATTGTTATGTCACTTGTATGTGGACGGAGTCACCTAGTGCAG,23800 fluorescence intensity (a.u.)
16,CTATAATTGAACGAGCATACTGATGGAGAGATCAAGAATCCGGAGTCACCTAGTGCAG,22500 fluorescence intensity (a.u.)
17,GGAGGTATACGTAATTAATTATCTTCCTCCGACAGGGCGACGGAGTCACCTAGTGCAG,16900 fluorescence intensity (a.u.)
18,GTAATTGAAGATCGGAGTGTTGTATTTGAGCTGGCAAGTTCGGAGTCACCTAGTGCAG,9630 fluorescence intensity (a.u.)
19,GCTTCTCTTCATTCATTCTTTGACTTCTTCTCCTAATTTACGGAGTCACCTAGTGCAG,4220 fluorescence intensity (a.u.)
20,TCAAATTAATTGCAGCCATCGATCGATCAATCCATGGATGCGGAGTCACCTAGTGCAG,50100 fluorescence intensity (a.u.)
21,TGTTATAACGGATTTCTAATTATATGTCTTAAGTTGTTAGCGGAGTCACCTAGTGCAG,6010 fluorescence intensity (a.u.)

row,Sequence,binding signal
1,ATATATATTATGATTAGATGACATGGTCAAAAGATATATTCGGAGTCACCTAGTGCAG,8510 fluorescence intensity (a.u.)
2,GCATGACCAAATTGCAAAATGTACCAGGCCCGAGATCGATCGGAGTCACCTAGTGCAG,3680 fluorescence intensity (a.u.)
3,ATTAATTATTAAATAGATTTAAATAAGATATGATGATTAACGGAGTCACCTAGTGCAG,38100 fluorescence intensity (a.u.)
4,ATTCTAATTAAAATTCTGATGAAGTGGTCTGGGTCTAGGTCGGAGTCACCTAGTGCAG,18800 fluorescence intensity (a.u.)
5,TTAATATATATTAATATATATTAGTGATATGCGAAACATACGGAGTCACCTAGTGCAG,3610 fluorescence intensity (a.u.)
6,TTAATTTATTCCATATAATCTCTGTTCTTGCTTAATGAAGCGGAGTCACCTAGTGCAG,5130 fluorescence intensity (a.u.)
7,GCAAATTAACTTAATTAATAAGTTGAGCAGCCTGTAGGCCCGGAGTCACCTAGTGCAG,58200 fluorescence intensity (a.u.)
8,TATAAATAACTTTGAAGATTGAATCGACATATCATACGATCGGAGTCACCTAGTGCAG,21200 fluorescence intensity (a.u.)
9,ATAATAAAGCATGATTAATATTTTATGCGTGACTTGTCTTCGGAGTCACCTAGTGCAG,6400 fluorescence intensity (a.u.)
10,TCCGATCAAGATTGAAATATCCACTTGTACATATACAACTCGGAGTCACCTAGTGCAG,6900 fluorescence intensity (a.u.)
11,TCGCACTAAATTAGCCCAACATTCTCCTCGCTTCCTCCTCCGGAGTCACCTAGTGCAG,6860 fluorescence intensity (a.u.)
12,TGTCAATCATGTACCTTGTGAACATTTAAGTGCATGTGGACGGAGTCACCTAGTGCAG,17900 fluorescence intensity (a.u.)
13,ACACCAATTGATTGTTGCTATGCCATACTCTGTAAAACAACGGAGTCACCTAGTGCAG,16000 fluorescence intensity (a.u.)
14,GTAATTTGGTTAATTTTGAACAAAACCGTTTAAGATGCACCGGAGTCACCTAGTGCAG,15600 fluorescence intensity (a.u.)
15,TCCTAATTTGGCGAATTACATGCCAGACCAAAAGGGGCTCCGGAGTCACCTAGTGCAG,6720 fluorescence intensity (a.u.)
16,ATCATAACTAAAGCTAAACTGATGTTTGGTAGACCGTACCCGGAGTCACCTAGTGCAG,5170 fluorescence intensity (a.u.)
17,ATAACTATTTAATTGACATGCAATAAATATAAATGGGTAGCGGAGTCACCTAGTGCAG,52600 fluorescence intensity (a.u.)
18,AATTTATTAATTAAAATTAGATCTTCTCTTCTAGGCTTTTCGGAGTCACCTAGTGCAG,13400 fluorescence intensity (a.u.)
19,CGTTTCTTGATTCGATGGTTGATGGATTTTGGTTTGTGGACGGAGTCACCTAGTGCAG,4980 fluorescence intensity (a.u.)
20,CTCTCTCTAAACCAATTAGCGATTGGATCATTCGGGCCTGCGGAGTCACCTAGTGCAG,6680 fluorescence intensity (a.u.)
21,CATGATTGAGCAGGTTCCAACGGGCCTACGTGGGCCTTAGCGGAGTCACCTAGTGCAG,16900 fluorescence intensity (a.u.)
